PubChem BioAssay AID504832 (National Center for Advancing Translational Sciences (NCATS), 2011)
The whole screen tested about 310,000 compounds, of which about 18,000 (5.8%) were called active. Inconclusive results, whose numbers are uncertain, are shown with a selection of clear calls. The call rests on the fitted dose curve; in most records, active means well fitted inhibition curve with a large enough effect; inconclusive means small, poorly fitted or top-dose-only effect, or another doubt; inactive means no such curve, though single readings can be large or run the other way. No potency is given beside an inconclusive call; the fits are too rough.

Experiment: Primary qHTS for delayed death inhibitors of the malarial parasite plastid, 48 hour incubation
Details: P. falciparum luciferase growth in erythrocytes; series mostly up to 28.7 µM; activity change, negative = inhibition: at the top concentration
Method in brief: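 Firefly luciferase activity from engineered P. falciparum reports growth; inhibitors lower the luminescent signal. Cultures contained 2% hematocrit erythrocytes at 0.1% final parasitemia.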
On the % scale 0 is the no-effect control and ±100 the full control effect; potency means the concentration at half of the fitted maximal effect; tags describe the fitted curve by direction and shape.

Compound	Potency	activity change, negative = inhibition
CC12CC(NC(=O)N1c1cccc(C(=O)N3CCN(c4ccccc4)CC3)c1)c1ccccc1O2 (stereo not given)	active: 8.28 µM	
CC(C)NC(=S)NN=C1CCCCCCCCCCC1	active: 11.7 µM	
CC1(C)Cc2cccc(OCC(=O)NCc3ccc(F)cc3)c2O1		inactive: -23.1%
COc1cccc(NC(=O)Nc2ccncc2)c1	active: 10.4 µM	
Cc1cc(C(=O)NCC(=O)Nc2c(C)cccc2C)c(C)o1	inconclusive [inhibitor, single point]	
O=C(COC(=O)CNC(=O)c1ccc(Cl)cc1Cl)NCc1ccco1		inactive: 6.62%
Cc1cc(=O)[nH]c(SCC(=O)NC2CCCCC2)n1	inconclusive [inhibitor, full curve, poor fit]	
CN(Cc1ccccc1)C(=O)C(C(=O)c1ccc(F)cc1)n1cc(Cl)ccc1=O (stereo not given)		inactive: 226%
CC(=O)Nc1ccc(/C=C(\C#N)C(=O)NC2CCCCC2)cc1		inactive: -26.7%
CC(C)C(NC(=O)C(CC(=O)O)NC(=O)C(CCCCN)NC(=O)C(N)CCCN=C(N)N)C(=O)NC(Cc1ccc(O)cc1)C(=O)O (stereo not given)		inactive: -1.06%
O=c1oc2ccccc2c(O)c1Cc1c(O)c2ccccc2oc1=O		inactive: 2.85% [at 12.8 µM]
O=C(CNC(=O)c1ccc2ccccc2c1)Nc1ncccc1O		inactive: 96.1%
ONC(=Nc1cccc(C(F)(F)F)c1)c1cccnc1	inconclusive [inhibitor, single point]	
CNc1nc(Cl)c(SC)c(NCc2cccc(OC)c2)n1		inactive: 0%
CCOC(=O)CC1=NN(c2ccccc2)C(=O)/C1=C\c1ccc(N(C)C)cc1	inconclusive [inhibitor, partial curve, poor fit]	
CCOc1cc(/C=N/NC(=O)c2cc(-c3cccnc3)nc3ccccc23)ccc1O		inactive: 2.12%
Cc1cc(NC(=O)/C=C/c2ccc(Cl)cc2)no1	inconclusive [inhibitor, single point]	
COCCn1c(=O)[nH]c2cc(C(=O)N3CCN(c4cccc(Cl)c4)CC3)ccc2c1=O	inconclusive [inhibitor, partial curve, poor fit]	
Cc1ccc(S(=O)(=O)N2CCCC2C(=O)Nc2nc3ccccc3s2)cc1 (stereo not given)	inconclusive [inhibitor, single point]	
Cc1cccc(NC(=O)CCN2CCN(C/C=C/c3ccccc3)CC2)c1	inconclusive [inhibitor, single point]	
CC(=O)[C@]1(O)Cc2c(O)c3c(c(O)c2[C@@H](O[C@H]2C[C@H](N)[C@H](O)[C@H](C)O2)C1)C(=O)c1ccccc1C3=O	active: 3.79 µM	
COc1ccc(-n2nc(C(=O)NCC(=O)NCCc3ccc(OC)c(OC)c3)c3ccccc3c2=O)cc1	inconclusive [inhibitor, single point]	
CC(=O)N/N=C(\C)CC(=O)NC(C)(C)C		inactive: 25.9%

Compound	Potency	activity change, negative = inhibition
CN(C)CCCN(C(=O)c1ccc(S(=O)(=O)N2CCCCCC2)cc1)c1nc2c(F)cc(F)cc2s1	inconclusive [inhibitor, single point]	
COC(=O)c1sc2nc3c(cc2c1N)C(=O)CC(C)(C)C3		inactive: 25%
CCN1CCN(Cc2ccc(NC(=O)c3cc(NC(=O)C4=NN(c5ccccc5)C(=O)C4)cc(OC)c3)cc2C(F)(F)F)CC1	active: 0.928 µM	
COc1ccc(-c2cc(=Nc3ccc(C)cc3)c3ccccc3o2)cc1	inconclusive [inhibitor, partial curve, poor fit]	
CCN(CC)S(=O)(=O)c1ccc2[nH]cc(C(=O)NCCCN3CCCCC3)c(=O)c2c1	inconclusive [inhibitor, partial curve]	
Cc1ccc(N2CCN(C(=S)c3ccc(-c4cccc([N+](=O)[O-])c4)o3)CC2)cc1		inactive: -4.51%
N#CCCN1CCN(S(=O)(=O)c2ccc3c(c2)CCC3)CC1	inconclusive [inhibitor, single point]	
O=C(c1ccc(Cl)cc1)c1oc2ccccc2c1CS(=O)c1ccc(Cl)cc1 (stereo not given)	inconclusive [inhibitor, full curve, poor fit]	
CCN(Cc1ccccc1)S(=O)(=O)c1ccc2oc(C(=O)O)c(C)c2c1	inconclusive [inhibitor, single point]	
Cc1cc(NC(=O)COc2ccc(F)c(Cl)c2)no1		inactive: 0.467%
CC(C)c1ccc(NS(=O)(=O)c2cccc3cccnc23)cc1	inconclusive [inhibitor, single point]	
COc1ccc(SCCN2CC[C@@H](C)CCC2=O)cc1		inactive: 46.5%
CCCOC(=O)c1ccc(Oc2c(-c3ccc(OC)cc3O)n[nH]c2C)cc1	inconclusive [inhibitor, partial curve]	
COC(=O)c1ccc(C(=O)N2CCCC(N3CCN(c4ccccc4)CC3)C2)nc1 (stereo not given)	inconclusive [inhibitor, partial curve, poor fit]	
O=C(COc1ccc(Br)cc1)NCCCNC(=O)c1cccnc1	inconclusive [inhibitor, partial curve]	
Cc1noc(C)c1COc1cccc(C(=O)N2CCc3ccccc32)c1	inconclusive [inhibitor, single point]	
COc1ccc(S(=O)(=O)NC2CC(=O)N(c3cccc(F)c3)C2)cc1OC (stereo not given)		inactive: 23.8%
O=C(/C(=C(\[O-])c1ccccc1)[n+]1ccc2ccccc2c1)c1ccccc1	inconclusive [inhibitor, single point]	
CC(C)(C)NC(=S)/N=C(\N)N[N+](=O)[O-]	inconclusive [inhibitor, single point]	
Cc1ccc(Cl)cc1N1CCN(S(=O)(=O)c2c(C(=O)N3CCOCC3)c(C)n(C)c2C)CC1	inconclusive [inhibitor, partial curve, poor fit]	
COc1ccc(C(C)=O)cc1CSc1nnc(-c2ccccc2O)n1-c1ccccc1	inconclusive [inhibitor, single point]	
Cc1onc(-c2ccccc2)c1C(=O)NCCCc1ccccc1		inactive: 11.1%
